Data published in the supplement of paper PMC11417369.
This is one part of the list.

The sequences below were run on PfHDP1 homeodomain (GST-tagged) (assay: gcPBM binding intensity (ln(normalized median fluorescence intensity)); higher = stronger DNA binding).
Procedure, shortened: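 Binding intensity is the highest Masliner-normalised natural-log median intensity over replicate spots in either probe orientation. To obtain it, GST-tagged P. falciparum DNA-binding domains made in E. coli were incubated for 1 h on an Agilent 4 × 180k array of primer-extended double-stranded 36-bp intergenic genomic probes plus negative controls. Detection used Alexa488 anti-GST antibody with scanning at 488 nm.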
In the case of “GTGTAGATATTGAAATGTACTCTCCATATAAAATAA [XGTACX_site4713]”, the “gcPBM binding intensity (ln)” value is reported as 6.13. “TTACGATACTTTAGGTGTACACAAATATACATGAAT [XGTACX_site4322]” was tested, and the “gcPBM binding intensity (ln)” value was 7. With “ATATATATATATATATGTACTTATTTATTTATATTA [XGTACX_site4646]” the “gcPBM binding intensity (ln)” value was 9.38. “ATTCTACTTTTATTTATTTATTTGTTTATATATATA [XGTACX_negctrl_site609]” was tested, and the “gcPBM binding intensity (ln)” value was 7.2. With “GAATGAATACGTTTTACACACTTGAATCTAATTTCA [CACACA_site6593]” the “gcPBM binding intensity (ln)” value was 6.33. In the case of “TTTTTTATTCATGTAACACACATTTAATTATGAATT [CACACA_site2706]”, the “gcPBM binding intensity (ln)” value is reported as 6.63. With “GAAAAATTAAAACCTACACACACATTTAAAAAAAAA [CACACA_site9005]” the “gcPBM binding intensity (ln)” value was 6.44. For “ATAAATACATATGTGTGTACACATTATATATATATA [XGTACX_site1486]”, the “gcPBM binding intensity (ln)” value was 9.17. With “ATATATATATAATCATCACACATGCAGCCCTGATGA [CACACA_site5500]” the “gcPBM binding intensity (ln)” value was 8.51. In the case of “TATATATTACATACATGTACCCAAAAAAAAAAAAAA [XGTACX_site1168]”, the “gcPBM binding intensity (ln)” value is reported as 6.52. For “AAAAAATTAGATTATGCACACACACTAATAAATAAT [CACACA_site8604]”, the “gcPBM binding intensity (ln)” value was 9.67. In the case of “AACAAAATTGAAGGAACACACATACATATTTATATA [CACACA_site6227]”, the “gcPBM binding intensity (ln)” value is reported as 6.5. For “TTTATTTAAGAAAAATGTACAGGTTCATTTCATAAT [XGTACX_site27]”, the “gcPBM binding intensity (ln)” value was 6.1. In the case of “CATATAAATACATGCACACAAAAATATCAATACATT [CACACA_site2392]”, the “gcPBM binding intensity (ln)” value is reported as 8.76. With “ATTTGTTCCTTGGGAGTTTACTTTTTTTTAATTTTA [CACACA_negctrl_site638]” the “gcPBM binding intensity (ln)” value was 6.55. With “TATAAAAATATATATATATATATATATATAATATGT [TGCATGCA_negctrl_site85]” the “gcPBM binding intensity (ln)” value was 7.01. “TTAAAAAAAAAACACACACACATACCCATATATATA [CACACA_site5768]” was tested, and the “gcPBM binding intensity (ln)” value was 6.9. With “TTCTTTTTAATTAATACACACACACCCATATATATA [CACACA_site8719]” the “gcPBM binding intensity (ln)” value was 7.3. In the case of “GGTCTAACAACATGCGCACACACATGAATATTCATA [CACACA_site1539]”, the “gcPBM binding intensity (ln)” value is reported as 8.13. In the case of “TAAGTATAAAAAAATAGTACAATTATGAAATATCGT [XGTACX_site2529]”, the “gcPBM binding intensity (ln)” value is reported as 6.6. In the case of “GCCCCCTAAAAAATTACACACGAAAAAAATGAATTT [CACACA_site9128]”, the “gcPBM binding intensity (ln)” value is reported as 7.63. “TTTTTTTTTTTTTTATGTACACATCTAAAAAAAAGG [XGTACX_site2067]” was tested, and the “gcPBM binding intensity (ln)” value was 6.75. In the case of “TTTAACAAGTTAAACACACATACATATATACATATA [CACACA_site2536]”, the “gcPBM binding intensity (ln)” value is reported as 6.4. For “AAAAATAACATATAAACACACATATAGATTTATATA [CACACA_site7738]”, the “gcPBM binding intensity (ln)” value was 6.33. In the case of “TGTAGTCTGGAGAAGAGTACACAGTATCTGGTAGCT [XGTACX_site2036]”, the “gcPBM binding intensity (ln)” value is reported as 5.85. In the case of “TTAAAAAATCACAACACACACACACGCAAAAAAAAA [CACACA_site6793]”, the “gcPBM binding intensity (ln)” value is reported as 6.95. For “ATATAGAATGTTTACACACGCAATAAATATATATAT [CACACA_site217]”, the “gcPBM binding intensity (ln)” value was 7.99. “GCGTATCATTTTAAAACACACAGGATTTTATAAGTA [CACACA_site1225]” was tested, and the “gcPBM binding intensity (ln)” value was 6.42. With “ATGGTATAAAAAAATACACACTTATTTATATTCTTA [CACACA_site6370]” the “gcPBM binding intensity (ln)” value was 6.11. In the case of “ATGTACCTTCAAACTACACACAAATGAAGGAACACA [CACACA_site3330]”, the “gcPBM binding intensity (ln)” value is reported as 6.55. “ATCTAATAAAAATACACACACATATGGTTTGTGAAT [CACACA_site6962]” was tested, and the “gcPBM binding intensity (ln)” value was 6.63. For “AAATATTACATACACGCACACATTAAAATATTTAAA [CACACA_site5440]”, the “gcPBM binding intensity (ln)” value was 7.46. In the case of “AATATATATATATATATATTTTTGTTAGAATATGGA [CACACA_negctrl_site212]”, the “gcPBM binding intensity (ln)” value is reported as 6.69. In the case of “TCTATTAATTAATATACACACATTATATATATATAT [CACACA_site8815]”, the “gcPBM binding intensity (ln)” value is reported as 8.73. “TACATTATAAATATTACACACTTTATAAAATAATAA [CACACA_site6096]” was tested, and the “gcPBM binding intensity (ln)” value was 6.45. In the case of “AAATAACTTTTAAATACACACGTAAAATATATTGTG [CACACA_site9085]”, the “gcPBM binding intensity (ln)” value is reported as 6.39. “ACCGTGGGAGGACACACACACACACGCACATATATA [CACACA_site6289]” was tested, and the “gcPBM binding intensity (ln)” value was 6.63. “TCCTTTTTTTTTTATGCACACACAATTATACATTCC [CACACA_site9287]” was tested, and the “gcPBM binding intensity (ln)” value was 10.5. With “TTAACCACTAAAAGTACACACATATATACATATATA [CACACA_site3912]” the “gcPBM binding intensity (ln)” value was 6.36. With “ATAATATTTTTATGTACACACCTTAATCCTTAAAAG [CACACA_site5881]” the “gcPBM binding intensity (ln)” value was 6.62. “ATTATGCACAGACACACACACACACTACTAAAAAAT [CACACA_site7252]” was tested, and the “gcPBM binding intensity (ln)” value was 11.1. In the case of “ATAGGAGAAAAAGAATGTACGTATGATGTTGAAAAT [XGTACX_site7779]”, the “gcPBM binding intensity (ln)” value is reported as 7.06. For “AATTTTTAGAAGAACACACACATATATATTATGACC [CACACA_site246]”, the “gcPBM binding intensity (ln)” value was 6.78. For “AAAAAAAATAAAAATATATATATATATATATAAATA [GTGCAC_negctrl_site676]”, the “gcPBM binding intensity (ln)” value was 6.74.
